# Source: PubChem BioAssay AID686979 (National Center for Advancing Translational Sciences (NCATS), 2013)
# Values joined by “and” are separate entries in the source; they are usually repeats but may differ in a detail not shown here. Equal values may be shown once. The whole screen tested about 420,000 compounds, of which about 50,000 (12%) were called active. Inconclusive results, whose numbers are uncertain, are shown with a selection of clear calls. Calls follow the shape of the dose curve; as a rule, active = well fitted inhibition curve with a large enough effect; inconclusive = small, poorly fitted or top-dose-only effect; inactive = flat fitted curve, though single readings scatter. Potencies of inconclusive entries are doubtful fits and often do not repeat.
# Test: qHTS for Inhibitors of human tyrosyl-DNA phosphodiesterase 1 (TDP1): qHTS in cells in presence of CPT; also: nearly all actives have a fitted effect of over 55% in size
# Settings: chicken DT40 Tdp1-/-;hTDP1 cells + 20 nM CPT, ATP luminescence, 48 h; activity change, negative = growth inhibition: at 46.2 µM (top of the series) unless noted
# Method in brief: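 Cell growth measured by CellTiter-Glo luminescence after a minimum 48 h, 37 C compound exposure with 20 nM CPT in Tdp1-knockout DT40 cells stably expressing hTDP1, seeded 400/well; qHTS titration format.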
# % is scaled to controls: 0 for no effect and ±100 for the full control effect; potency is read from the fitted curve at half-maximal effect; tags tell the direction and shape of the fitted curve.
Compound,Potency,"activity change, negative = growth inhibition"
CC(C)=CCSc1nnc([C@@H](NC(=O)OC(C)(C)C)C(C)C)o1,"inconclusive: 16.4 µM [inhibitor, single point]",
O=C(O)c1ccc(S(=O)(=O)c2ccc3c(c2)C(=O)N(c2ccc(Br)cc2)C3=O)cc1,,inactive: 1.22%
CCN(c1ccccc1)S(=O)(=O)c1ccc(Cl)c(C(=O)NCC2CCCO2)c1 (stereo not drawn),,inactive: -23.8%
Cc1cccc(-c2cc3c(N=O)c4ccccc4c-3n[nH]2)c1,"inconclusive: 16.4 µM [inhibitor, partial curve, poor fit]",
Nc1nc2[nH]c(=O)[nH]c2c(=O)[nH]1,,inactive: -10.5%
COc1ccc(NS(=O)(=O)c2ccc(OC)c(NC(=O)CCC3CCCC3)c2)cc1,"inconclusive: 18.4 µM [inhibitor, single point]",
CC(=O)N1c2ccc(S(=O)(=O)N3CCC(C(=O)N4CCC(C)CC4)CC3)cc2CC1C (stereo not drawn),"inconclusive: 14.6 µM [inhibitor, partial curve]",
CCn1cc(CN2CCc3c([nH]c4ccccc34)C2c2cccc(OC)c2OC)c(C)n1 (stereo not drawn),"inconclusive: 29.1 µM [inhibitor, single point]",
C/C=C(/C(=C/C)c1ccc(O)cc1)c1ccc(O)cc1,"inactive and inconclusive: 16.4 µM [inhibitor, single point] and inconclusive: 7.31 µM [inhibitor, partial curve]",
COc1ccc(OC)c(S(=O)(=O)NCCc2csc(-c3cccnc3)n2)c1,,inactive: -6.83%
COc1cc(OCC(=O)NC(C)C)cc2c1C(=O)O[C@@H](C)CCCC(=O)CCCCC2,"inconclusive: 20.6 µM [inhibitor, single point]",
Clc1ccc(N(CC2CO2)CC2CO2)cc1 (stereo not drawn),active: 0.461 µM,
O=C(Cn1cc(C(=O)C2CCCCC2)c2ccccc21)Nc1ccccc1Cl,"inconclusive: 29.1 µM [inhibitor, single point]",
COCCCNC(=O)c1cc(-c2cccnc2)nc2ccc(S(=O)(=O)N3CCCCCC3)cc12,,inactive: -2.91%
CCOC(=O)C(CC)(CC)C(=O)/C=C/c1ccc(OC)cc1,"inconclusive: 29.1 µM [inhibitor, single point]",
COc1ccc(N/C=C(\[N+](=O)[O-])S(=O)(=O)c2ccccc2)cc1,"inconclusive: 23.1 µM [inhibitor, single point]",
CSC[C@H](NC(=O)COc1cc2c(c3oc(=O)c(C)c(C)c13)CCC(C)(C)O2)C(=O)O,,inactive: 17.7%
[O-]/C(=C(\C(=S)Nc1cccc2ccccc12)[n+]1ccccc1)c1ccc(OC(F)F)cc1,"inconclusive: 16.4 µM [inhibitor, partial curve]",
O=C(NCCN1CCOCC1)/C(=C\c1ccc(F)cc1)NC(=O)c1ccccc1,,inactive: -8.24%
O=C1CCCC2=C1C(c1ccco1)Nc1ccc3ccccc3c12 (stereo not drawn),active: 20.6 µM,
COCCCN(CC(=O)NCc1ccccc1)S(=O)(=O)c1ccc(C)cc1,"inconclusive: 13 µM [inhibitor, partial curve]",
CC[n+]1ccc(C(=O)NCc2ccccc2)cc1,,inactive: 6.01%
Cc1cccc(N(C(=O)c2snc(C(N)=O)c2N)C(C(=O)NCC2CCCO2)c2cccs2)c1 (stereo not drawn),,inactive: -88.1%
CC(C)CN(C(=O)Cn1c(Cl)nc2c1c(=O)n(C)c(=O)n2C)C1CCS(=O)(=O)C1 (stereo not drawn),,inactive: 0.98%
COc1cc(-c2cc(OC)c3c(C)oc(C)c3c(=O)c2)ccc1OC(=O)c1ccc(C)cc1,active: 5.17 µM,

Compound,Potency,"activity change, negative = growth inhibition"
CCOc1ccc(NC(=O)CSC2=Nc3ccccc3C3=NC(CC(=O)NCc4cccs4)C(=O)N23)cc1 (stereo not drawn),"inconclusive: 20.6 µM [inhibitor, single point]",
CC(C(=O)N(C)C1CCS(=O)(=O)C1)N1C(=O)/C(=C/c2ccc(F)cc2)SC1=S (stereo not drawn),"inconclusive: 20.6 µM [inhibitor, single point]",
CCc1nc2ccc(C(=O)N3CCN(C(C)=O)CC3)cn2c1N(CC)C(=O)NCCc1ccccc1,,inactive: -7.94%
O=C(CN1C(=O)NC2(CCCc3ccccc32)C1=O)NCC(F)(F)F (stereo not drawn),,inactive: -8.28%
O=C(OCc1ccc(O)cc1)c1c(-c2ccsc2)oc2ccc(N3CCOCC3)cc12,active: 18.4 µM,
COC(=O)c1c(C)cc(OC(=O)c2c(C)cc(O)c(C=O)c2O)c(C)c1O,active: 5.8 µM,
O=c1[nH]cnc(O)c1C(c1ccc2c(c1)OCO2)c1c(O)nc[nH]c1=O,,inactive: 2.25%
COc1ccccc1C(=O)NCCSCc1c(F)cccc1Cl,"inconclusive: 29.1 µM [inhibitor, single point]",
CSCC[C@H](N)C(=O)N1CCC(C(=O)N[C@H](C)C(=O)NC(C)c2ccccc2)CC1 (stereo partly drawn),,inactive: 20.9%
CCNc1nc(SC)nc(N(C#N)CC(=O)OC)n1,"inconclusive: 20.6 µM [inhibitor, single point]",
Cc1nc(N(C)C2CCCCC2)c2nnn(Cc3ccc(F)cc3)c2n1,"inconclusive: 29.1 µM [inhibitor, single point]",
Cc1noc(C)c1S(=O)(=O)N1CCC(C(=O)c2ccccc2)CC1,,inactive: 1.84%
C/C(=N\Nc1ccc(S(=O)(=O)N2CCOCC2)cc1[N+](=O)[O-])C(C)C,"inconclusive: 29.1 µM [inhibitor, single point]",
CCc1ccc2oc(C(=O)N(Cc3ccc(N(C)C)cc3)Cc3ccco3)c(C)c2c1,active: 0.731 µM,
Cc1cccc2c1ncc1c(=O)n(-c3ccccc3)[nH]c12,,inactive: 0.338%
CCCN(CCC)C(=O)c1cc2c(=O)n3cccc(C)c3nc2s1,"inactive and inconclusive: 20.6 µM [inhibitor, single point]",
COCCn1c(CN(Cc2ccccc2)Cc2ccccc2)nc2c1c(=O)n(C)c(=O)n2C,"inconclusive: 16.4 µM [inhibitor, single point]",
COc1ccccc1/C=C(/NC(=O)c1ccccc1)C(=O)NCCN1CCOCC1,,inactive: 15.4%
c1cc(CCCc2ccncc2)ccn1,,inactive: -4.6%
CCS(=O)(=O)N1CCN(c2ccccn2)CC1,,inactive: 4.51%
CC(=O)N1c2ccc(S(=O)(=O)N3CCCCC3)cc2CC1C (stereo not drawn),,inactive: -9.99%
O=C(NN=C1CCCC1)c1cc(Cl)cc(Cl)c1O,,inactive: -8.66%
CC1=NN(C(N)=S)C(=O)C1N=Nc1cccc([N+](=O)[O-])c1 (stereo not drawn),"inconclusive: 29.1 µM [inhibitor, single point]",
CC(C)c1ccc(NS(=O)(=O)c2ccc(-n3cccn3)cc2)cc1,"inconclusive: 29.1 µM [inhibitor, single point]",
Cc1cc(=O)c2cc(Br)ccc2[nH]1,active: 6.51 µM,

Compound,Potency,"activity change, negative = growth inhibition"
CCOC(=O)C1(Cc2cccc(Cl)c2)CCCN(C(=O)CCSC)C1 (stereo not drawn),"inconclusive: 20.6 µM [inhibitor, single point]",
Cc1ccc(-c2cn3c(n2)sc2cc(C(=O)NCCCN4CCCCCC4)ccc23)cc1,active: 1.64 µM,
O=C(OCC1COc2ccccc2O1)c1ccccc1F (stereo not drawn),,inactive: 4.12%
O=C(/C=C/c1ccccc1)NCCCNC(=O)/C=C/c1ccccc1,,inactive: -6.02%
O=C(c1cccc(F)c1)N1CCN(C(=O)c2cc3nc(-c4ccco4)cc(C(F)(F)F)n3n2)CC1,,inactive: -23.7%
O=C(O)c1nn(CCSc2ccccc2F)c(=O)c2ccccc12,"inconclusive: 23.1 µM [inhibitor, partial curve]",
COc1ccc([C@H]2CC(=O)C=C(c3cccc(OC)c3)C2)cc1,,inactive: -22.8%
CC(=O)c1cccc(NC(=O)C2CCN(c3ncnc4c3nc3n4CCCCC3)CC2)c1,"inconclusive: 25.9 µM [inhibitor, single point]",
O=C(O)c1ccccc1OP(=O)(O)O,,inactive: 4.5%
Cc1ccc(C)c(S(=O)(=O)c2c(N)n(/N=C/c3ccco3)c3nc4ccccc4nc23)c1,"inconclusive: 20.6 µM [inhibitor, single point]",
N=c1n(Cc2ccc(Cl)cc2)c2ccccc2n1CC(O)c1ccco1 (stereo not drawn),active: 7.31 µM,
CC1=NN(c2ccccc2)C(=O)/C1=C\C=C\c1ccccc1,active: 4.61 µM,
COc1ccc(C)cc1N(C(=O)COc1ccccc1)c1nc2ccccc2s1,"inconclusive: 23.1 µM [inhibitor, single point]",
COc1cc2nc(CN(C)Cc3nc4ccccc4c(=O)[nH]3)[nH]c(=O)c2cc1OC,active: 12.6 µM,
COc1ccccc1N1CCN(C(c2cccs2)C(C)NC(=O)c2cccnc2)CC1 (stereo not drawn),"inconclusive: 29.1 µM [inhibitor, single point]",
CCCCN1CC(=O)N2[C@H]3c4cc(OC)ccc4OC[C@@H]3[C@H](C(=O)OCC)[C@]2(C)C1=O,,inactive: 7.08%
COc1cccc(NC(=O)CN2C(=O)c3ccccc3Sc3ncccc32)c1,"inconclusive: 11.6 µM [inhibitor, partial curve]",
O=C1N/C(=C/c2cccn2-c2ccccc2)C(=O)N1c1cccc(Cl)c1,"inconclusive: 20.6 µM [inhibitor, single point]",
CCOc1ccc(CN(C)C(=O)CNC(=O)Cc2cccc3ccccc23)cc1,"inconclusive: 20.6 µM [inhibitor, partial curve]",
COc1ccc(C(C[N+](=O)[O-])c2c(-c3ccccc3)cc3ccccn23)cc1 (stereo not drawn),active: 23.1 µM,
O=C(O)c1ccc(Nc2ncc([N+](=O)[O-])cc2[N+](=O)[O-])cc1,,inactive: -2.96%
CC(=O)Nc1ccc(Nc2cc(C(C)C)nc3c(-c4ccccc4)c(C)nn23)cc1,"inconclusive: 29.1 µM [inhibitor, single point]",
CC(C)(C)N(Cc1ccccc1)C(=O)COC(=O)C1CCN(c2ccc(C(F)(F)F)cn2)CC1,"inconclusive: 18.4 µM [inhibitor, single point]",
